From the RNAGym collection of RNA variant scans (doi:10.1093/nar/gkz1192)
The source gives no read counts; variants with many changes may rest on few reads.

B1: CPEB3 Ribozyme (parent)
chain: UAACAGGGGGCCACAGCAGAAGCGUUCACGUCGCAGCCCCUGUCAGAUUCUGGUGAAUCUGCGAAUUCUGCUGUAUAUCUC

Variants of: B1
Experiment: self-cleavage, relative activity (ratio to wild type); higher = more cleavage; in vitro, sequencing
Method in brief: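 Barcoded CPEB3 ribozyme mutants, produced by rounds of error-prone PCR, self-cleaved while being transcribed with T7 RNA polymerase for 5 hours at 37°C and during a subsequent 15 min DNase I step before EDTA was added. Sequencing of template-switched cDNA on Illumina gave cleaved and total reads, and DNA sequencing assigned barcodes to variants. Each variant's relative activity is its cleaved/total read fraction divided by the unmutated ribozyme's fraction, averaged across three batches. A variant needed a minimum of 5 reads.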

Row | Variant | self-cleavage
1 | UAACAGGGGGCCACAGCAGAAGCGUUCAUGUCGCAGCCCCUGUCUGAAUCCGGUGAAUCUGCGGAUUCUACUGUAUAUCUC [C29U A45U U48A U51C A64G G70A] | 0.17
2 | UAACAGGGGGCCACAGCAGAAGCGUUCAUGUCGCAGCCCCUGUCUGAUUCCGGUGAAUCUGCGAAUUCUGCUGUAUAUCUC [C29U A45U U51C] | 0.24
3 | UAACAGGGGGCCACAGCAGAAGCGUUCAUGUCGCAGCCCCUGUCAGGUUCAGGUGAAUCUGCGAAUUCUGCUGUAUAUCUC [C29U A47G U51A] | 0.39
4 | UAACAGGGGGCCACAGCAGAAGCGUUCAUGUCGCAGCCCCUGUCAGGUUCUGGUGAAUCUGCGAAUACUGCUGUAUAUCUC [C29U A47G U67A] | 0.28
5 | UAACAGGGGGCCACAGCAGAAGCGUUCAUGUCGCAGCCCCUGUCAGGUUCUGGUGAAUCUGCGAAUUCUGCUGCGUAUCUC [C29U A47G U74C A75G] | 0.58
6 | UAACAGGGGGCCACAGCAGAAGCGUUCAUGUCGCAGCCCCUGUCAGUUUCUGGUGAGUCUGCGAAUCCUGCUGUGUAUCUC [C29U A47U A57G U67C A75G] | 0.1
7 | UAACAGGGGGCCACAGCAGAAGCGUUCAUGUCGCAGCCCCUGUCAGUUUCUGGUGAAUCUGCGGAUUCUGCUGUAUAUCUC [C29U A47U A64G] | 0.39
8 | UAACAGGGGGCCACAGCAGAAGCGUUCAUGUCGCAGCCCCUGUCAGUUUCUGGAGAAUCUACGAAUUCUGCUGAAUAUCUC [C29U A47U U54A G61A U74A] | 0.1
9 | UAACAGGGGGCCACAGCAGAAGCGUUCAUGUCGCAGCCCCUGUCAGUUUCUGGUGAAUCUGCGAAUUCUGCUGUAUACCUC [C29U A47U U78C] | 0.36
10 | UAACAGGGGGCCACAGCAGAAGCGUUCAUGUCGCAGCCCCUGUCAGAUUCUGGUGCAUCUGCGGAUUCUGCUGUACAUCUC [C29U A56C A64G U76C] | 0.1
11 | UAACAGGGGGCCACAGCAGAAGCGUUCAUGUCGCAGCCCCUGUCAGAUUCUGGUGGAUCUGCGAAUUCGGCUGUAUAUCUC [C29U A56G U69G] | 0.22
12 | UAACAGGGGGCCACAGCAGAAGCGUUCAUGUCGCAGCCCCUGUCAGAUUCUGGUGGAUCUGCGAAUUCUGCCGUAUAUCUC [C29U A56G U72C] | 0.66
13 | UAACAGGGGGCCACAGCAGAAGCGUUCAUGUCGCAGCCCCUGUCAGAUUCUGGUGUAUCUACGAAUUCUGCUGUAUAUCUC [C29U A56U G61A] | 0.11
14 | UAACAGGGGGCCACAGCAGAAGCGUUCAUGUCGCAGCCCCUGUCAGAUUCUGGUGAGUCUGCGAAUUCUGCUGUUUAUCUC [C29U A57G A75U] | 0.45
15 | UAACAGGGGGCCACAGCAGAAGCGUUCAUGUCGCAGCCCCUGUCAGAUUCUGGUGAGUCUGCGAAUUUUGCUGUAUAUCUC [C29U A57G C68U] | 0.2
16 | UAACAGGGGGCCACAGCAGAAGCGUUCAUGUCGCAGCCCCUGUCAGAUUCUGGUGAGUCAGCGAAUUCUGCUGUAUAUCUC [C29U A57G U60A] | 0.17
17 | UAACAGGGGGCCACAGCAGAAGCGUUCAUGUCGCAGCCCCUGUCAGAUUCUGGUGAGUCUGCGAAUUCCGCUGUAUAUCUC [C29U A57G U69C] | 0.19

Row | Variant | self-cleavage
18 | UAACAGGGGGCCACAGCAGAAGCGUUCAUGUCGCAGCCCCUGUCAGAUUCUGGUGAGUCUGCGAAUUCUGCGGUAUAUCUC [C29U A57G U72G] | 0.38
19 | UAACAGGGGGCCACAGCAGAAGCGUUCAUGUCGCAGCCCCUGUCAGAUUCUGGUGAAUCUGCGGAUUCUGCAGUAUAUCUC [C29U A64G U72A] | 0.26
20 | UAACAGGGGGCCACAGCAGAAGCGUUCAUGUCGCAGCCCCUGUCAGAUUCUGGUGAAUCUGCGGAUUCUGCUGGAUAUCUC [C29U A64G U74G] | 0.68
21 | UAACAGGGGGCCACAGCAGAAGCGUUCAUGUCGCAGCCCCUGUCAGAUUCUGGUGAAUCUGCGUUUCCUGCUGGAUAUCUC [C29U A64U A65U U67C U74G] | 0.15
22 | UAACAGGGGGCCACAGCAGAAGCGUUCAUGUCGCAGCCCCUGUCAGAUUCUGGUGAAUCUGCGAUUUCUGCCGUAUAUCUC [C29U A65U U72C] | 0.17
23 | UAACAGGGGGCCACAGCAGAAGCGUUCAUGUUGCAGCCCCUGACAGAUUCUGGUGAAUCUGCGAAUUCUGCUGUAUAUCUC [C29U C32U U43A] | 0.07
24 | UAACAGGGGGCCACAGCAGAAGCGUUCAUGUCGCAGCCACUGUCACAUUCUGGUGAAUCUGCGAAUUCUGCUGUAUGUCUC [C29U C39A G46C A77G] | 0.19
25 | UAACAGGGGGCCACAGCAGAAGCGUUCAUGUCGCAGCCUCUGUCAGAUUCUGGUGAAUCUGCGAAUUCUGCUGUAUGUCUC [C29U C39U A77G] | 0.17
26 | UAACAGGGGGCCACAGCAGAAGCGUUCAUGUCGCAGCCCAUGUCAGAUUCUGGUGAAUCAGCGAGUUCUGCUGUAUAUCAC [C29U C40A U60A A65G U80A] | 0.08
27 | UAACAGGGGGCCACAGCAGAAGCGUUCAUGUCGCAGCCCCUGUCAGAUUUUGAUGAAUCUGCGAUUUCUGCUGUAUAUCUC [C29U C50U G53A A65U] | 0.12
28 | UAACAGGGGGCCACAGCAGAAGCGUUCAUGUCGCAGCCCCUGUCAGAUUCUGGUGAAUAUGCGAAUUCCGCUGUAUAUCUC [C29U C59A U69C] | 0.07
29 | UAACAGGGGGCCACAGCAGAAGCGUUCAUGUCGCAGCCCCUGUCAGAUUCUGGUGAAUCUGUGAAUUCAGCUGUAUAUCCC [C29U C62U U69A U80C] | 0.11
30 | UAACAGGGGGCCACAGCAGAAGCGUUCAUGUCACAGCUCCUGUCAGAUUCUGGUGAAUCAGCGAAUUCUGCUGUAUAUCUC [C29U G33A C38U U60A] | 0.06
31 | UAACAGGGGGCCACAGCAGAAGCGUUCAUGUCACAGCCCCUGUCAGAUACAGGUGAAUCUGCGGAUUCUGCUGUAUAUCUC [C29U G33A U49A U51A A64G] | 0.24
32 | UAACAGGGGGCCACAGCAGAAGCGUUCAUGUCUCGGCCCCUGACAGGUUCUGGUGAAUCUGCGAAUUCUGCUGUAUAUCCC [C29U G33U A35G U43A A47G U80C] | 0.1
33 | UAACAGGGGGCCACAGCAGAAGCGUUCAUGUCUCUGCCCCUGUCAGAUUCUGGUGAAUCUGCGAAUUCUGCUGUAUAUCUC [C29U G33U A35U] | 0.08
34 | UAACAGGGGGCCACAGCAGAAGCGUUCAUGUCGCAGCCCCUUUCAGAUUCUGGUGAAUCUGCGAAUUCUGCCGUAUAUCUC [C29U G42U U72C] | 0.17
